In the supplement of paper PMC11417369:
This is one part of the list.

What follows are sequences tested on PfSIP2 AP2 domain 1 (GST-tagged) (assay: gcPBM binding intensity (ln(normalized median fluorescence intensity)); higher = stronger DNA binding).
In short: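 GST-fused DNA-binding domains of P. falciparum, expressed in E. coli, were applied at about 25 μg on average for 1 h to an Agilent 4 × 180k array of primer-extended double-stranded 36-bp intergenic genomic probes and negative controls. Binding intensity is the highest Masliner-normalised natural-log median intensity across replicate spots of either probe orientation, measured with Alexa488 anti-GST antibody and a 488 nm scan.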

| Sequence | gcPBM binding intensity (ln) |
| --- | --- |
| CTTCTTATTTTCTAATGTACGTACAAATCATTTATA [XGTACX_site2176] | 8 |
| TAAACATACATATACACACACACACCCACACCCACA [CACACA_site492] | 7.23 |
| AAAAACAAACTGTGCATGCACCAAAAAAAAAAAAAA | 10.4 |
| TGTCCTTATGGGCACACACACATATAAGAAATTTAA [CACACA_site3187] | 7.07 |
| TTTTTTTTTTTAATTTGTACGAATCTTTTTATTTTA [XGTACX_site4516] | 6.72 |
| TAAAAATAGTATACAACACACGAGGGAAAATAAAGT [CACACA_site3837] | 7.56 |
| TATCGAGCACGGCGTGTGGAGTTACAAAGAGGAGAA [CACACA_negctrl_site40] | 6.99 |
| GCCAATAAAGATGTGGTGCATTATATATATATATAT | 10.6 |
| AAATGTATAATATTTTCACACACAAGAAAAAAGAAA [CACACA_site9195] | 6.83 |
| CGTATTTATATAATTACACACCATATTTTAATTATT [CACACA_site5960] | 7.12 |
| ATTTATTTGTTTGTTTTTTTTACGATTTTTATTTTT [CACACA_negctrl_site1138] | 6.97 |
| ATAAACAATTAACAAACATGCAAATTTTAAATGTGT [TGCATGCA_site919] | 6.86 |
| TAATTTTTTTTTCTTGTACACACTATTTTATAATTT [CACACA_site4078] | 7.09 |
| ATCTATGATATATACACACACATGTATAAATAAATA [CACACA_site7012] | 6.95 |
| AATAGTATTCACAAAGTTTTATATAATAAATATAAA [GTGCAC_negctrl_site154] | 6.71 |
| CTTTCATATGTTTTAACACACACGCATATATTATAT [CACACA_site8615] | 7.37 |
| TTTTTTTTTTTGATTTGTACACAAAAAAAATATATG [XGTACX_site4547] | 7.18 |
| TTTTTTTTTTTTTTTTGTACATATTTTTAAACTATA [XGTACX_site2897] | 6.99 |
| TTTTTTTTTTGATGTTGTACATATATATTATATATA [XGTACX_site6377] | 7.17 |
| AGATATATGGACGACTCACACATTTAAATTCATTCA [CACACA_site6047] | 7.08 |
| CTAGCAAATACATACACACACACACCGATACAGATA [CACACA_site5853] | 7.18 |
| ATATATACATATATTACACACTTCTTATTCTAAGAA [CACACA_site3022] | 6.91 |
| TCCATAAAAATGGATACACACACATAATATATATAT [CACACA_site9207] | 8.38 |

| Sequence | gcPBM binding intensity (ln) |
| --- | --- |
| TATAATATAAGGATCACACACAAACACCCATATATA [CACACA_site4468] | 7.07 |
| CATACATACATACATACACACATACCTATATTTATA [CACACA_site6769] | 8.07 |
| TTAATAACAAAATAAACACACATATATAAATACCCA [CACACA_site4960] | 6.94 |
| TTGCCCATTTAATTAACACACAAATGTTTATATTCT [CACACA_site6488] | 7.17 |
| TTTGAAATAAGCAAATGTACATTATTATTAAATATA [XGTACX_site6158] | 6.72 |
| TTCACATACAGAAACACACACATATATATAAATTAA [CACACA_site3705] | 7.37 |
| TGTATGATAACTATAGTGCATTTGGTAATTTTTCCA | 8.37 |
| TATTTCATGATACAATGTACATGTATATATGATACC [XGTACX_site5057] | 7.19 |
| AATAATATATATTACACACGCATCGTTCATTTATTT [CACACA_site2391] | 7.11 |
| AAATATAATATATGCACACATACATACAGATATATA [CACACA_site4235] | 7.09 |
| ATAAATATAGGACACACACACATATTATATATATAT [CACACA_site5658] | 8.41 |
| ATAATATAAATATGCACACAAATTATTACCCAAAAA [CACACA_site2524] | 8.85 |
| GTTATATTCCTACAGAGTACATAAAAATGCACATCA [XGTACX_site1948] | 7.54 |
| TATATAAAAAAACAAAGTACATGTTCTTAATCATTT [XGTACX_site8446] | 6.64 |
| AAATGAACAAGTGGCACACACACATCATAACTAATT [CACACA_site5730] | 6.77 |
| CACGCGAACATACATACACACACATATATATATATG [CACACA_site7951] | 7.21 |
| ATATATTTTTTCTTAACACACATATATAAAATAAAA [CACACA_site3500] | 7.23 |
| CAAAATATATATACCACACACACATACCTCTATTTG [CACACA_site1853] | 7.11 |
| TATATATATATATACACACACACACCGATATATATA [CACACA_site8813] | 9.17 |
| AGCCACTTAAAATACACACACACCAAAAAAAAAAAA [CACACA_site5497] | 7.35 |
| TATTTTATTTATTGAAGTACATTATACAAAAATAAA [XGTACX_site4824] | 7.21 |
| TATTCGAACAAAAATACATGCACATATGCATAATAA [TGCATGCA_site171] | 9.27 |
| TTTTCCAGTAAATATTTTTTTATAATATTTATATAT [CACACA_negctrl_site387] | 6.9 |

| Sequence | gcPBM binding intensity (ln) |
| --- | --- |
| AAATAAAATAAAATACGTACCTATTGTGCGTATTAA [XGTACX_site2912] | 6.74 |
| AATAATTTCCAAAAATGTACATATATTTACATATAT [XGTACX_site1790] | 7.09 |
| ATTTTAACTCCCCTTAATCTATTGTATATATATATA [CACACA_negctrl_site208] | 9 |
| TAATAAATGTTATTAGTGCATAATAGATAATATATT | 8.29 |
| TAAGAAATTGAGCGCACACATACATCTGTGGGATGG [CACACA_site1548] | 6.71 |
| ATTGTGGATATTCTTACACACAAATTTATTTATAAA [CACACA_site7267] | 6.66 |
| ATGTAAATATTTTGTATGCACTTTGATGCATCTTTT | 9.57 |
| TTTTTTTCTTCTTTTCTCTTAAAAATATTGAATATT [CACACA_negctrl_site1762] | 6.73 |
| AAAAAAAAAAAAAAAAAAAAAAAAAAAAAAAAAAAG [CACACA_negctrl_site292] | 9.16 |
| TCAAGAGTTATATAAACACACATACATACAGACATA [CACACA_site6998] | 6.93 |
| AGCAAAAAAAAAAAAAAAAAAAAAATAATAAAAAAT [TGCATGCA_negctrl_site202] | 6.87 |
| GTTTTCTAGTGGGGGTGTACATATTTATATTTAATA [XGTACX_site8378] | 9.65 |
| ATATATATATAATAAGTGCAAAAAAAAGAAAAAAAT | 8.48 |
| TTTTTTTTTTTTGAGGTGCATATATCAGATCAATAT | 10.6 |
| CATATATTAATATGTACACACATTAATAAAAAAAAA [CACACA_site7504] | 7.04 |
| AGTATTCATAAAAATACACACATGGAAAAATAAAAT [CACACA_site1454] | 7.16 |
| GGTATTACTTTTAGCTGTACTTATTTAAAAGTCAAA [XGTACX_site530] | 7.27 |
| ATTTTTTTTTTTTTATGTACATATTAAAAAAAATAT [XGTACX_site1829] | 7.01 |
| ATTTTTACTTTTTATGCATGCTATATTTTCAACCAT [TGCATGCA_site871] | 7.11 |
| ATTAAGGAAAAATTATGTACACAAAAACATATAACA [XGTACX_site2901] | 7.29 |
| TATACATGTTCAATTTGTACATATATAAATATATAT [XGTACX_site3554] | 7.09 |
| CTACACAAGCATTAAACACACAAAAGGGATACTTTG [CACACA_site1083] | 6.89 |
| ATTCAAAAAAATAAAATAAACATAAATAAACATAAA [TGCATGCA_negctrl_site390] | 6.86 |

| Sequence | gcPBM binding intensity (ln) |
| --- | --- |
| GGAAAAAGAAATTAATGTACATGTGGATGTATGAGG [XGTACX_site5468] | 7.25 |
| AAAATATTTAAGCATTGTACATATTTTTACAAATAC [XGTACX_site5349] | 6.85 |
| AAAATTCATCCAACAAGTACATAAATATAATATTAT [XGTACX_site4596] | 7.09 |
| AAGAACAGATAAAATCGTACGTGAAACATGAACTTG [XGTACX_site7793] | 6.86 |
| TCTGAAATTTTAGGGGTGCCTGGGACTAAAGAAACG [GTGCAC_site9785] | 8.09 |
| TAGAAACCATAAAAATGTACTTAAAAATAGACAATT [XGTACX_site5007] | 6.82 |
| AGACTTTTTATGAGCACACACATATATTATGGAGTA [CACACA_site1040] | 7.09 |
| TTTAATTCCCATATATGTACACAATTTCTTCTATAA [XGTACX_site1465] | 7.08 |
| ATAAATTCATTATATTGTACAAACAAATGAAAAAAA [XGTACX_site8304] | 6.92 |
| ATACATAAATATTATTGTACATATATAATATTAATA [XGTACX_site3514] | 7 |
| TATGTGTATTTATTTGCATGTTGGTTGTATTTTTTC [TGCATGCA_site479] | 6.93 |
| TCTTCATATGTTTACTGTACGAGAAAAAAAAAAAAA [XGTACX_site6418] | 7.36 |
| TAATAAAATAAAAATTGTACATTTTATATTTATCAA [XGTACX_site5134] | 6.8 |
| AATGAAAAAAAAAAAAAAAAGAAGAAGCAAATGGTA [TGCATGCA_negctrl_site335] | 6.46 |
| ATAAATAATTATATATGTACACATTATGAATGGATA [XGTACX_site8336] | 7.34 |
| AGATTATTTGGACATGCATGTAAAAAAATACGTATA [TGCATGCA_site972] | 6.92 |
| ATTTCCCACTTGTGTGTGCGCATGTGTATATATTTA [GTGCAC_site9949] | 7.73 |
| AAAAGTGATAATAAGAGTACATAAAAAATTTATTAT [XGTACX_site8037] | 6.89 |
| TTATTTGTTTGTTGGATGCTTTTTTTTTTTTTTTTT [CACACA_negctrl_site1697] | 7.74 |
| TACATATATATAATATGTACTTATAATATGTATTTA [XGTACX_site2162] | 6.83 |
| TATTCTATACTATATTGTACTATAATATAATATACT [XGTACX_site797] | 7.08 |
